Reference: publication PMC4560833
These are yes or no findings as the source states them, for the method shown. Binding seen in cells or lysates may run through a third protein. Some results given as binding are weak or reduced against the parent protein; the word gives no strength. Where a sequence is shown, tags or fusion partners need not be part of it.

T1: PAQR3 (progestin and adipoQ receptors 3), overexpressed (UniProt Q6TCH7)
T1 sequence: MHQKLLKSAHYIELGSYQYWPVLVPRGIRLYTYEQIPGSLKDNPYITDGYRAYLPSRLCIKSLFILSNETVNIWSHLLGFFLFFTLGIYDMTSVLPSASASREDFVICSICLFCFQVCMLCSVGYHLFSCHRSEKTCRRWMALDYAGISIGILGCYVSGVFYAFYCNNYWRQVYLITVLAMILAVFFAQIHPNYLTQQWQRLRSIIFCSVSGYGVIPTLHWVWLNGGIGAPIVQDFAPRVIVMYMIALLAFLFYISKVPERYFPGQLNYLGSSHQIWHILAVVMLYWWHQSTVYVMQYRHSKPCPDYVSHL

T2: Myc-tagged Scap (SREBP cleavage-activating protein) (UniProt Q12770)
T2 sequence: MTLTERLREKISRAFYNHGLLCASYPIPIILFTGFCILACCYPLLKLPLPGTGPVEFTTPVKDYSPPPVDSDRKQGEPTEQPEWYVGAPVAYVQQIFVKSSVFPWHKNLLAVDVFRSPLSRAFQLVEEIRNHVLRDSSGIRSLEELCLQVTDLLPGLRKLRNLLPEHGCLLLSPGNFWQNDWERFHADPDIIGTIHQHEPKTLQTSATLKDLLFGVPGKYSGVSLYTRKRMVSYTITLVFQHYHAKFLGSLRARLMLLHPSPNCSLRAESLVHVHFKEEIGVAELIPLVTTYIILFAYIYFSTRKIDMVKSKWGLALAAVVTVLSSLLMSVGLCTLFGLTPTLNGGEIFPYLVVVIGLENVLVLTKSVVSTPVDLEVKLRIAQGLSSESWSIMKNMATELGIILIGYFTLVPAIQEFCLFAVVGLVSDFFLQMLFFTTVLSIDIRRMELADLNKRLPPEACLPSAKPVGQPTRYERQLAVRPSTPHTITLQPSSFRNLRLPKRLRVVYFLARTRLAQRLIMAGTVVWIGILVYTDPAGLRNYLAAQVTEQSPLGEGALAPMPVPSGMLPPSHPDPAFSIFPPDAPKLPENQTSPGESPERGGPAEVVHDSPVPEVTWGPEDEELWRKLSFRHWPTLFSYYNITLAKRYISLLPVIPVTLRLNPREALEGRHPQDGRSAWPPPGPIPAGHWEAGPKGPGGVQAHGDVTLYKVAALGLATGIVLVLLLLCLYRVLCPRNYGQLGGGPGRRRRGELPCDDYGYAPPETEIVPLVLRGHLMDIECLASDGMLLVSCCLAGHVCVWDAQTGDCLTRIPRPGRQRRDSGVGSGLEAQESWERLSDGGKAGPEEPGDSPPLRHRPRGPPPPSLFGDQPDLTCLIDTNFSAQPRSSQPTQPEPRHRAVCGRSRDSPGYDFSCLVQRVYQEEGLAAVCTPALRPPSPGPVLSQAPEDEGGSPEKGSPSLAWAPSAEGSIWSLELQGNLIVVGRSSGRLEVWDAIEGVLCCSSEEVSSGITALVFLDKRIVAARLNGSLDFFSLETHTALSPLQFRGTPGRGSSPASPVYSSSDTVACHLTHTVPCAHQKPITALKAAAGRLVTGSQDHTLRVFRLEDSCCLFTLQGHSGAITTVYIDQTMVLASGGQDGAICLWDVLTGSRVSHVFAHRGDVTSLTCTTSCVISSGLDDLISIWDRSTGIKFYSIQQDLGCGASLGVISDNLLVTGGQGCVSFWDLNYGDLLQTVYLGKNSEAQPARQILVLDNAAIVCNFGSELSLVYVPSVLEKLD

T3: Flag-tagged SREBP-2 (UniProt Q12772)
T3 sequence: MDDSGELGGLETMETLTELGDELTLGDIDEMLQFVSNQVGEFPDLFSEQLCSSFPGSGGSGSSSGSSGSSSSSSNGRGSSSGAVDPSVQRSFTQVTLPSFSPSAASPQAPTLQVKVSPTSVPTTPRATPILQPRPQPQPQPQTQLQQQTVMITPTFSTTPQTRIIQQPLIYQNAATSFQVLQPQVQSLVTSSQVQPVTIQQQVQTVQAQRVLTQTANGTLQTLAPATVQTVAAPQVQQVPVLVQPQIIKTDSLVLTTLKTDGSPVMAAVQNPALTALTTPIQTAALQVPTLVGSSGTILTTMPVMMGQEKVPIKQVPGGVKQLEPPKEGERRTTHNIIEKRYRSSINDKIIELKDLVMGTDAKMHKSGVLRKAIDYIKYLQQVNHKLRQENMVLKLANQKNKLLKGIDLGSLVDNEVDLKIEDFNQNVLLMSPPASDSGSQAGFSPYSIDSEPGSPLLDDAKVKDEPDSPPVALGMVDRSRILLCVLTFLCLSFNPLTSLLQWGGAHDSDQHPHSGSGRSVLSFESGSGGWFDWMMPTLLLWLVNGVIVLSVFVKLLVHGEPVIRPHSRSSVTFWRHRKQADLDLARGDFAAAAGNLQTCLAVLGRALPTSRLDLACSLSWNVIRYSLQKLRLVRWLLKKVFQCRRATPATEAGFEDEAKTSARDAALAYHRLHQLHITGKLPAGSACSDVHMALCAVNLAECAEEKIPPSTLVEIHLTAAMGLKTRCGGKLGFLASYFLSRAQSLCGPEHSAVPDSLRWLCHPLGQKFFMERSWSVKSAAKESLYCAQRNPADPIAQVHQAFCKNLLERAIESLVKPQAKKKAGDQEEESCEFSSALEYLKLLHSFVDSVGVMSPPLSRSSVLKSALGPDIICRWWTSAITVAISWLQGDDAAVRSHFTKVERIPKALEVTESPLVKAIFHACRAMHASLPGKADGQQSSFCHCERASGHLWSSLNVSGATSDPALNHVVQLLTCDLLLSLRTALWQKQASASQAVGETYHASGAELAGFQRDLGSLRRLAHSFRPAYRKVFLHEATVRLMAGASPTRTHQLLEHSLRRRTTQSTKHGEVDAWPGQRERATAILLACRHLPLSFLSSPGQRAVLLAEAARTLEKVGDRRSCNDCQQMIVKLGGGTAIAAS

B1: Insig-1 cloned into p3Xflag-CMV-10 (protein, UniProt O15503 1-277)
chain: MPRLHDHFWSCSCAHSARRRGPPRASAAGLAAKVGEMINVSVSGPSLLAAHGAPDADPAPRGRSAAMSGPEPGSPYPNTWHHRLLQRSLVLFSVGVVLALVLNLLQIQRNVTLFPEEVIATIFSSAWWVPPCCGTAAAVVGLLYPCIDSHLGEPHKFKREWASVMRCIAVFVGINHASAKLDFANNVQLSLTLAALSLGLWWTFDRSRSGLGLGITIAFLATLITQFLVYNGVYQYTSPDFLYIRSWLPCIFFSGGVTVGNIGRQLAMGVPEKPHSD
B2: PAQR3 with deletion of amino acid residues 1–20 (domain or fragment, UniProt Q6TCH7 21-311)
chain: PVLVPRGIRLYTYEQIPGSLKDNPYITDGYRAYLPSRLCIKSLFILSNETVNIWSHLLGFFLFFTLGIYDMTSVLPSASASREDFVICSICLFCFQVCMLCSVGYHLFSCHRSEKTCRRWMALDYAGISIGILGCYVSGVFYAFYCNNYWRQVYLITVLAMILAVFFAQIHPNYLTQQWQRLRSIIFCSVSGYGVIPTLHWVWLNGGIGAPIVQDFAPRVIVMYMIALLAFLFYISKVPERYFPGQLNYLGSSHQIWHILAVVMLYWWHQSTVYVMQYRHSKPCPDYVSHL
B3: PAQR3 with deletion of amino acid residues 1–40 (domain or fragment, UniProt Q6TCH7 41-311)
chain: KDNPYITDGYRAYLPSRLCIKSLFILSNETVNIWSHLLGFFLFFTLGIYDMTSVLPSASASREDFVICSICLFCFQVCMLCSVGYHLFSCHRSEKTCRRWMALDYAGISIGILGCYVSGVFYAFYCNNYWRQVYLITVLAMILAVFFAQIHPNYLTQQWQRLRSIIFCSVSGYGVIPTLHWVWLNGGIGAPIVQDFAPRVIVMYMIALLAFLFYISKVPERYFPGQLNYLGSSHQIWHILAVVMLYWWHQSTVYVMQYRHSKPCPDYVSHL
B4: calnexin (protein, UniProt P27824 21-592)
chain: HDGHDDDVIDIEDDLDDVIEEVEDSKPDTTAPPSSPKVTYKAPVPTGEVYFADSFDRGTLSGWILSKAKKDDTDDEIAKYDGKWEVEEMKESKLPGDKGLVLMSRAKHHAISAKLNKPFLFDTKPLIVQYEVNFQNGIECGGAYVKLLSKTPELNLDQFHDKTPYTIMFGPDKCGEDYKLHFIFRHKNPKTGIYEEKHAKRPDADLKTYFTDKKTHLYTLILNPDNSFEILVDQSVVNSGNLLNDMTPPVNPSREIEDPEDRKPEDWDERPKIPDPEAVKPDDWDEDAPAKIPDEEATKPEGWLDDEPEYVPDPDAEKPEDWDEDMDGEWEAPQIANPRCESAPGCGVWQRPVIDNPNYKGKWKPPMIDNPSYQGIWKPRKIPNPDFFEDLEPFRMTPFSAIGLELWSMTSDIFFDNFIICADRRIVDDWANDGWGLKKAADGAAEPGVVGQMIEAAEERPWLWVVYILTVALPVFLVILFCCSGKKQTSGMEYKKTDAPQPDVKEEEEEKEEEKDKGDEEEEGEEKLEEKQKSDAEEDGGTVSQEEEDRKPKAEEDEILNRSPRNRKPRRE
B5: golgin-97 (protein, UniProt Q92805 1-767)
chain: MFAKLKKKIAEETAVAQRPGGATRIPRSVSKESVASMGADSGDDFASDGSSSREDLSSQLLRRNEQIRKLEARLSDYAEQVRNLQKIKEKLEIALEKHQDSSMRKFQEQNETFQANRAKMAEGLALALARKDQEWSEKMDQLEKEKNILTAQLQEMKNQSMNLFQRRDEMDELEGFQQQELSKIKHMLLKKEESLGKMEQELEARTRELSRTQEELMNSNQMSSDLSQKLEELQRHYSTLEEQRDHVIASKTGAESKITALEQKEQELQALIQQLSIDLQKVTAETQEKEDVITHLQEKVASLEKRLEQNLSGEEHLQELLKEKTLAEQNLEDTRQQLLAARSSQAKAINTLETRVRELEQTLQASEEQLQQSKGIVAAQETQIQELAAANQESSHVQQQALALEQQFLERTQALEAQIVALERTRAADQTTAEQGMRQLEQENAALKECRNEYERSLQNHQFELKKLKEEWSQREIVSVAMAQALEEVRKQREEFQQQAANLTAIIDEKEQNLREKTEVLLQKEQEILQLERGHNSALLQIHQLQAELEALRTLKAEEAAVVAEQEDLLRLRGPLQAEALSVNESHVTSRAMQDPVFQLPTAGRTPNGEVGAMDLTQLQKEKQDLEQQLLEKNKTIKQMQQRMLELRKTLQKELKIRPDNELFEVREKPGPEMANMAPSVTNNTDLTDAREINFEYLKHVVLKFMSCRESEAFHLIKAVSVLLNFSQEEENMLKETLEYKMSWFGSKPAPKGSIRPSISNPRIPWS
B6: PAQR3 with deletion of amino acid residues 1–60 (domain or fragment, UniProt Q6TCH7 61-311)
chain: KSLFILSNETVNIWSHLLGFFLFFTLGIYDMTSVLPSASASREDFVICSICLFCFQVCMLCSVGYHLFSCHRSEKTCRRWMALDYAGISIGILGCYVSGVFYAFYCNNYWRQVYLITVLAMILAVFFAQIHPNYLTQQWQRLRSIIFCSVSGYGVIPTLHWVWLNGGIGAPIVQDFAPRVIVMYMIALLAFLFYISKVPERYFPGQLNYLGSSHQIWHILAVVMLYWWHQSTVYVMQYRHSKPCPDYVSHL

Assays:
Assay in all cases: co-IP; HEK293T cells transiently transfected; lysis buffer 20 mM Tris-HCl pH 7.5, 137 mM NaCl, 5 mM EDTA, 1% NP-40, 10% glycerol; antibody overnight at 4 °C, protein A/G agarose, immunoblot; in Fig. 4e cells in normal medium, LD medium or LD medium with 25-HC
[1] = target: T1, PAQR3 (progestin and adipoQ receptors 3), overexpressed
[2] = target: T2, Myc-tagged Scap (SREBP cleavage-activating protein)
Flag-tagged SREBP-2 = target: T3, Flag-tagged SREBP-2

| Binder | binding [1] | binding [2] | binding (Flag-tagged SREBP-2) |
| --- | --- | --- | --- |
| B1 | no binding | binds |  |
| B2 |  | binds | no binding |
| B3 |  | binds | no binding |
| B4 |  | no binding |  |
| B5 |  | no binding |  |
| B6 |  | no binding | no binding |
